From PMC4336329 (PLoS ONE, 2015)
Screen size: about 310,000 compounds; about 2,200 (0.71%) showed an effect of 50% or more. Effects have a minus sign here. This is one part of the list.

What follows are compounds tested against human ether-à-go-go-related gene (hERG) potassium channel (human, UniProt Q12809) (assay: primary screen, population patch clamp on CHO cells stably expressing hERG).
human ether-à-go-go-related gene (hERG) potassium channel, sequence (Q12809 whole entry, looked up): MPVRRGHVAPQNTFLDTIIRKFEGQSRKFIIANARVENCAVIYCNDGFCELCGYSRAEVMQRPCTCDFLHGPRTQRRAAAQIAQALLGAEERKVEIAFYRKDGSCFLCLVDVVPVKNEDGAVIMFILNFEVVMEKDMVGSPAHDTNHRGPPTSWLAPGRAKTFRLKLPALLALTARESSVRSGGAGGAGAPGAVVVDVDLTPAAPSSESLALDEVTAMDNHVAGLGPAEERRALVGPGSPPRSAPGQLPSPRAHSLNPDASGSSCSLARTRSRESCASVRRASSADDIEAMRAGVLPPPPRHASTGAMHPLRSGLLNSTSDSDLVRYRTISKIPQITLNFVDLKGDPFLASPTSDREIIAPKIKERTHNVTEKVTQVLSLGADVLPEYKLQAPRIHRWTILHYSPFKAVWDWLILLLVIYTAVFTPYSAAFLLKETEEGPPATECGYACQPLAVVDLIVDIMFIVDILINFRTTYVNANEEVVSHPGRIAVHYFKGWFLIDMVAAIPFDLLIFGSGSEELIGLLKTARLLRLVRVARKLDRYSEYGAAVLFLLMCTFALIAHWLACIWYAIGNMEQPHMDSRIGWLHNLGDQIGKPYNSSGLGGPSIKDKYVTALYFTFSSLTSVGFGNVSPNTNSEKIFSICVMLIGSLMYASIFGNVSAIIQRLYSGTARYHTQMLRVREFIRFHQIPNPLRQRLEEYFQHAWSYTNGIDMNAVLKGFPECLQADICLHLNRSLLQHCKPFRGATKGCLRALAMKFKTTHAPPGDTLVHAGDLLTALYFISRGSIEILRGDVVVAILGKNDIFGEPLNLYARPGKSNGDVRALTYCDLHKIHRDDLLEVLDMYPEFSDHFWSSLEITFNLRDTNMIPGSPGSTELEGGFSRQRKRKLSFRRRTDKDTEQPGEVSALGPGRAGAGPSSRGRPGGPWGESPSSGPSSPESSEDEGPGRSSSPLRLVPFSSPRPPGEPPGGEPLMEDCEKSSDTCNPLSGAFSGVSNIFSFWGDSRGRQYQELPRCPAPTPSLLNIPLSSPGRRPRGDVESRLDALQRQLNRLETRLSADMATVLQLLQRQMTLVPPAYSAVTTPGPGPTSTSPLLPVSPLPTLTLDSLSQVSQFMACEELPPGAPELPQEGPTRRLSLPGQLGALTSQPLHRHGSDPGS

Row | SMILES | hERG current change (%, negative = inhibition) at 1uM
1 | O=C(c1ccc(Cl)cc1)N1CCN(c2ccc(F)cc2)CC1 | -9.05%
2 | O=C(c1cccc(S(=O)(=O)N2CCN(c3ccc(F)cc3)CC2)c1)N1CCCC(C(F)(F)F)C1 (centres unmarked) | -5.54%
3 | C=C1CC(C(=O)N/N=C/c2ccc(O)cc2)C1 | 7.31%
4 | O=C(C1CC(c2ccccc2O)=NO1)N1CCCC1 (centres unmarked) | 7.04%
5 | O=C(NCc1ccccc1)C1CCCN(c2nc3ccsc3c(=O)s2)C1 (centres unmarked) | 13%
6 | COc1cccc(S(=O)(=O)NCc2ccc(C(=O)N3CCN(c4ccccc4OC)CC3)cc2)c1 | 11.6%
7 | CCCOCC1CC2(CC(C)(c3csc(N)n3)OC2=O)C(=O)O1 (centres unmarked) | 5.25%
8 | O=C(NC1CCCCC1)C(c1ccc(F)cc1)N(Cc1ccco1)C(=O)Cn1nnc2ccccc21 (centres unmarked) | 7.39%
9 | CC(=O)Nc1ccc2c(c1)ncn2C | 21.1%
10 | Cc1ccc(-n2ncc3c(=O)n(-c4ccc(C)c(C)c4)c(C)nc32)cc1 | 14.8%
11 | COc1cc(CN2CCCC(CO)(Cc3ccccc3F)C2)ccc1O (centres unmarked) | 4.84%
12 | CC(C)C(NC(=O)Cc1ccccc1)C(=O)N1CCN(c2cccc(Cl)c2)CC1 (centres unmarked) | -1.28%
13 | CC(=O)c1ccc(OC(C)C)c(CSc2nc(O)cc(=O)[nH]2)c1 | 14%
14 | COc1ccc(N2C(=O)CC(N(CCc3ccc(OC)c(OC)c3)C(=S)Nc3ccccc3)C2=O)cc1 (centres unmarked) | -0.158%
15 | CC(=O)c1cc2c(cc1NC(=O)c1cc(C)nn1-c1ccccc1)OCO2 | -8.57%
16 | COc1cc2c(cc1OC)-c1cc(N3CCCCCC3)nc(=O)n1CC2 | 10.1%
17 | CNc1ccc(NC(C)=O)cc1[N+](=O)[O-] | 6.91%
18 | Cc1cccnc1 | 11.2%
19 | COCCc1nc2ccc(C(=O)NCc3cccc(-n4cccn4)c3)cc2o1 | 17.3%
20 | CCOC(=O)[C@@H]1[C@H]2COc3ccc(Br)cc3[C@@H]2N2C(=O)N(c3ccc(F)cc3)C(=O)[C@]12C | 0.688%
21 | COc1ccc(S(=O)(=O)N2CCOCC2)cc1NC(=O)COC(=O)C1CC2CCCC(C1)C2=O (centres unmarked) | -0.752%
22 | O=C(OCc1ccccc1F)c1cc([N+](=O)[O-])ccc1N1CCOCC1 | -1.22%

Row | SMILES | hERG current change (%, negative = inhibition) at 1uM
23 | CCN(CC)CCO | 8.88%
24 | Cc1ccc(S(=O)(=O)O/N=C2/CCCc3occc32)cc1 | 12.8%
25 | Cc1ccccc1CCNC(=O)Cn1nc(C)c2c(C)n(-c3ccccc3)nc2c1=O | 5.1%
26 | COc1ccc(OCCNC(=O)c2ccccc2OCC(=O)N2CCCCC2)cc1 | 1.21%
27 | CC(=O)c1c(CC(=O)O)[nH]n(-c2nc3ccccc3s2)c1=O | -2.33%
28 | CCSc1nnc(NS(=O)(=O)c2ccc(C)cc2)s1 | 11.6%
29 | Cn1c(=O)[nH]c(=O)c2c1nc(N/N=C/c1ccncc1)n2Cc1ccc(Cl)cc1 | 13.3%
30 | CN(C)S(=O)(=O)c1cc(NC(=O)CNCc2ccccc2)ccc1Cl | 7.42%
31 | CCC(C)n1cnc2c(c1=O)c1nc3ccccc3nc1n2-c1ccc2c(c1)OCCO2 (centres unmarked) | -1.38%
32 | CN1C(=O)c2cccc(NC(=O)Cc3ccccc3)c2C1=O | 12.6%
33 | CNC(=S)N1CCC(NC(=O)C(Cc2ccc(OC)cc2)NC(C)=O)CC1 (centres unmarked) | 19.4%
34 | O=C(COc1ccccc1)NC1CCCc2ccccc21 (centres unmarked) | 0.95%
35 | COc1cc(C(O)C(=O)O)ccc1O (centres unmarked) | 7.64%
36 | Cc1cc(NC(=O)CSc2nnnn2-c2cc(Cl)ccc2C)no1 | 13%
37 | CCOc1ccc(C(C)=O)cc1N1C(=O)C2C3C=CC(O3)C2C1=O (centres unmarked) | 8.72%
38 | CCS(=O)c1scc(-c2ccc(Cl)cc2)c1C#N (centres unmarked) | -13.3%
39 | Cc1ccc2c(c1)c(N=Nc1ccc([N+](=O)[O-])cc1)c(O)n2C | 12%
40 | CSc1ncc(Cl)c(C(=O)[O-])n1.[NH3+]CCc1ccccc1 | 0.119%
41 | COc1ccc(Cl)cc1NC(=O)CSc1nnc(-c2ccco2)o1 | 7.21%
42 | CC(C)n1c(CN2CCN(Cc3ccccc3)CC2)nc2ccccc21 | 6.63%
43 | CCCC(=O)NC(Nc1cc(C(F)(F)F)ccc1Cl)C(Cl)(Cl)Cl (centres unmarked) | 5.79%
44 | Cc1cccc2c1-c1sc(C(=O)N3CCCCC3)cc1CO2 | -3.32%
